From PubChem BioAssay (NCATS)
The inconclusive results got no clear call from the source; some entries with a clear call stand among them for comparison. For some assays here: Where the call is inconclusive, the potency comes from a doubtful curve fit. The source made the active and inactive calls. The call rests on the fitted dose curve; in most records, active means well fitted curve in the direction sought with a large enough effect; inconclusive means small, poorly fitted or top-dose-only effect, or another doubt; inactive means no such curve, though single readings can be large; an effect the other way counts as inactive or inconclusive.

Experiments:
[1] = qHTS Screen of the MIPE 4.0 Collection Against Ewings Sarcoma (RDES) (AID 1259252); further: nearly all actives have a fitted effect of over 35% in size; further: potency means the concentration at half of the fitted maximal effect;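 on viability (percent of control): 100% = DMSO-treated cells and 0% = medium-only wells without cells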
How it was run: (§1)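 Dose series incubated 48 h with cells in RPMI plus 5% FBS, glutamine and penicillin/streptomycin; cell viability then quantified via CellTiter-Glo.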

[2] = qHTS Screen of the MIPE 4.0 Collection Against Ewings Sarcoma (TC71) (AID 1259253); further: nearly all actives have a fitted effect of over 40% in size; further: potency means the concentration at half of the fitted maximal effect
How it was run: as §1

[3] = qHTS Screen of the MIPE 4.0 Collection Against Ewings Sarcoma (EW8) (AID 1259255); further: nearly all actives have a fitted effect of over 35% in size; further: potency means the concentration at half of the fitted maximal effect;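 on viability: 100% = DMSO-treated cells and 0% = medium-only wells without cells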
How it was run: as §1

[4] = Identifying Small Molecule Inhibitors of Pancreatic Cancer Stem Cells (A2780, Spheroid) (AID 1259357); details: Potency: A2780 spheroid viability; viability (percent of control): at 46.1 µM (top of the series); further: potency means the concentration at half of the fitted maximal effect;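 further: spheroids pre-formed over 14 days in stem cell medium on hydrogel; compound exposure lasted 48 h before the ATP luminescence read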;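 on viability (percent of control): 100% = DMSO treated cells and 0% = wells without cells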
How it was run: (§2)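 Viability is scored by CellTiter-Glo luminescence 48 h after dosing, expressed as percent activity against vehicle and no-cell references. Spheroid formats rely on cells cultured 14 days in stem cell media beforehand.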

[5] = Identifying Small Molecule Inhibitors of Pancreatic Cancer Stem Cells (SN12C, Spheroid) (AID 1259360); details: Potency: SN12C spheroid viability; further: potency means the concentration at half of the fitted maximal effect
How it was run: as §2

[6] = Identifying Small Molecule Inhibitors of Pancreatic Cancer Stem Cells (Panc1, Adherent) (AID 1259362); details: Potency: viability; viability, % of control: at 46.1 µM (top of the series);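 further: compound exposure lasted 48 h before the viability read; plate controls were DMSO-treated cells for no effect and cell-free media wells for full effect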
How it was run: (§3)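 Endpoint: ATP-based luminescence, 48 h drug exposure. Bortezomib at 9.2 uM final as full-kill control; DMSO vehicle as negative control; activity normalized between vehicle and cell-free wells.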

[7] = P-glycoprotein substrates identified in KB-8-5-11 adenocarcinoma cell line, qHTS therapeutic library screen (AID 1346987); further: potency means the concentration at half of the fitted maximal effect; nearly all actives have a fitted effect of over 65% in size
How it was run: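 Luminescence from CellTiter-Glo, read 5 min after addition, quantified survival of KB-8-5-11 (P-gp-overexpressing) cells exposed to compounds for 72 h. AC50 was derived from concentration-response curves.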

[8] = Identifying Small Molecule Inhibitors of Pancreatic Cancer Stem Cells (Panc1, Spheroid) (AID 1259359); details: Panc1 spheroid cancer stem cell viability; viability, % of control: at 46.1 µM (top of the series);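 further: compound exposure lasted 48 h before reading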
How it was run: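 After a 4 h attachment period, compounds were pinned into wells and cultures held 48 h under standard incubator conditions. Viability was then measured as CellTiter-Glo luminescence following 10 min at room temperature.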

[9] = qHTS Assay for Identifying Gametocytocidal Compounds (AID 743244); further: potency means the concentration at half of the fitted maximal effect; details: P. falciparum 3D7 stage III-V gametocytes, alamarBlue, 72 h; max response: stronger effect = lower value
How it was run: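 Compounds are pinned into medium, gametocytes (stage III–V, 3D7, 20,000 cells/well) added, and plates held 72 h at 37 °C in 5% CO2. AlamarBlue follows for 24 h before fluorescence reading.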

[10] = Identifying Small Molecule Inhibitors of Pancreatic Cancer Stem Cells (A278, Adherent) (AID 1259361); details: viability (% of control): at 46.1 µM (top of the series);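 further: viability read after 48 h compound exposure; nearly all actives have a fitted effect of over 35% in size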
How it was run: as §3
Tags describe the fitted curve by direction and shape.

CN1CCN(CCOc2cc(OC3CCOCC3)c3c(Nc4c(Cl)ccc5c4OCO5)ncnc3c2)CC1
inconclusive: Potency [1] 6.62 µM [inhibitor, partial curve] | Potency [2] 23.5 µM [inhibitor, partial curve] | Potency [3] 23.5 µM [inhibitor, single point] | viability, % of control [6] 107% | Potency [7] 37.2 µM [inhibitor, single point]
active: Potency [5] 18.7 µM
inactive: Potency [4]

C1Cc2[nH]nc(-c3nn[nH]n3)c2C1
inactive: Potency [1] | Potency [2] | Potency [3]
inconclusive: viability (percent of control) [4] 127% | viability, % of control [8] 118% | viability, % of control [6] 105%

COC1=C(OC)C(=O)C(CCCCCCCCCCO)=C(C)C1=O
inconclusive: Potency [1] 37.2 µM [inhibitor, single point] | Potency [2] 33.2 µM [inhibitor, single point] | Potency [3] 33.2 µM [inhibitor, single point] | Potency [7] 32.6 µM [inhibitor, single point]

Cc1cccc(-c2nn(C(=S)Nc3ccccc3)cc2-c2ccnc3ccccc23)n1
inactive: Potency [3] | Potency [6]
inconclusive: Potency [9] 37.2 µM [inhibitor, single point] | Potency [1] 14.8 µM [inhibitor, partial curve, poor fit] | Potency [2] 11.8 µM [inhibitor, partial curve, poor fit] | Potency [4] 0.0118 µM [rising, full curve, poor fit] | Potency [5] 0.0083 µM [rising, full curve, poor fit] | IC50 (viability decrease) [10] 0.0332 µM [rising, full curve, poor fit] | Potency [7] 29.1 µM [inhibitor, partial curve, poor fit]
